# Reference: the supplement of paper PMC8728848
# The other results are listed elsewhere or left out.
# B1: PX9961C-bth-497-22-497 (Bacteroides thetaiotaomicron) (protein)
# chain: DWLDLNTTSSVETGQAIVTLDDAQIALNGIYRLASGHSYYGDNYWYYGDCRAADVQARITKGDGKRVSPYYEYNVLASDNLNIVLPWNTVYKVIRQTNNLIQKIESGSIQSSDTKELNRIKSEALVMRGLSLFNLTRLFGMPYTNDKGASLGVPIETSPSDPTHKPSRSTVAQCYEQVVSDMSNALSGLRQETSNGYINYWAAQALLSRVYLNMGEYQKAYDAATDVIKNNGGRYQLYSYEEYPNVWGQDFQSESLFELYITLSEPSGGTGGEGAPMVYANEATVDWNNLILSEDFLNLLNEDPKDVRHCLTKESVIENNTGLPAAAMHEKVYLAKFPGKTGDDPKTNNICIIRLSEVYLNAAEAGLKKGTDIEEAQGYLNDIISRRTTDTSQQVSTETFTLDRILKERRKELVGEGEVFYDYLRNGLAIERKGSWHLETLKASNAQKIEATDLRIALPIPQSEIDANPNIQQNPR
# Legend:
# Assay in all cases: glycan array binding signal (z-score within array); higher = stronger binding
# Details in all cases: glycan notation: IUPAC condensed, linker removed
# [1] = biological target: Fuc(a1-2)Gal(b1-4)GlcNAc(b1-3)Gal(b1-4)GlcNAc(b1-3)Gal(b1-4)GlcNAc
# Summary of the method: (§1)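 Negative Z-scores can be read as non-binding. The Z-score is calculated within each array and then averaged across arrays of one protein sequence at different concentrations or buffers and across linkers. Arrays, 3228 in all, were curated from the Consortium for Functional Glycomics database and kept only where the protein sequence was available.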
# [2] = biological target: Fuc(a1-2)Gal(b1-4)GlcNAc(b1-3)GalNAc
# Summary of the method: as §1
# [3] = biological target: Fuc(a1-2)Gal(b1-4)GlcNAc(b1-3)[Fuc(a1-2)Gal(b1-4)GlcNAc(b1-6)]GalNAc
# Summary of the method: as §1
# [4] = biological target: Fuc(a1-2)Gal(b1-4)GlcNAc(b1-3)[Fuc(a1-3)[Gal(b1-4)]GlcNAc(b1-6)]Gal(b1-4)Glc
# Summary of the method: as §1
# [5] = biological target: Fuc(a1-2)Gal(b1-4)GlcNAc(b1-6)GalNAc
# Summary of the method: as §1
# [6] = biological target: Fuc(a1-2)Gal(b1-4)GlcNAc6S
# Summary of the method: as §1
# [7] = biological target: Fuc(a1-2)Gal(b1-4)[Fuc(a1-3)]GlcNAc
# Summary of the method: as §1
# [8] = biological target: Fuc(a1-2)Gal(b1-4)[Fuc(a1-3)]GlcNAc(b1-2)Man(a1-3)[Fuc(a1-2)Gal(b1-4)[Fuc(a1-3)]GlcNAc(b1-2)Man(a1-6)]Man(b1-4)GlcNAc(b1-4)[Fuc(a1-6)]GlcNAc
# Summary of the method: as §1
# [9] = biological target: Fuc(a1-2)Gal(b1-4)[Fuc(a1-3)]GlcNAc(b1-2)[Fuc(a1-2)Gal(b1-4)[Fuc(a1-3)]GlcNAc(b1-4)]Man(a1-3)[Fuc(a1-2)Gal(b1-4)[Fuc(a1-3)]GlcNAc(b1-2)Man(a1-6)]Man(b1-4)GlcNAc(b1-4)GlcNAc
# Summary of the method: as §1
# [10] = biological target: Fuc(a1-2)Gal(b1-4)[Fuc(a1-3)]GlcNAc(b1-3)Gal(b1-4)[Fuc(a1-3)]GlcNAc
# Summary of the method: as §1
# [11] = biological target: Fuc(a1-2)Gal(b1-4)[Fuc(a1-3)]GlcNAc(b1-3)Gal(b1-4)[Fuc(a1-3)]GlcNAc(b1-3)Gal(b1-4)[Fuc(a1-3)]GlcNAc
# Summary of the method: as §1
# [12] = biological target: Fuc(a1-2)Gal(b1-4)[Fuc(a1-3)]GlcNAc(b1-3)GalNAc
# Summary of the method: as §1
# [13] = biological target: Fuc(a1-2)Gal(b1-4)[Fuc(a1-3)]GlcNAc(b1-3)[Neu5Ac(a2-6)Gal(b1-4)GlcNAc(b1-6)]Gal(b1-4)Glc
# Summary of the method: as §1
# [14] = biological target: Fuc(a1-2)Gal3S(b1-4)GlcNAc
# Summary of the method: as §1
# [15] = biological target: Fuc(a1-2)Gal6S(b1-3)GlcNAc
# Summary of the method: as §1
# [16] = biological target: Fuc(a1-2)Gal6S(b1-3)GlcNAc6S
# Summary of the method: as §1
# Fuc(a1-2)Gal6S(b1-4)Glc = biological target: Fuc(a1-2)Gal6S(b1-4)Glc
# Summary of the method: as §1
# [17] = biological target: Fuc(a1-2)Gal6S(b1-4)Glc6S
# Summary of the method: as §1
# Fuc(a1-2)[Gal(a1-3)]Gal = biological target: Fuc(a1-2)[Gal(a1-3)]Gal
# Summary of the method: as §1
# [18] = biological target: Fuc(a1-2)[Gal(a1-3)]Gal(b1-3)GalNAc
# Summary of the method: as §1
# [19] = biological target: Fuc(a1-2)[Gal(a1-3)]Gal(b1-3)GalNAc(b1-3)Gal(a1-4)Gal(b1-4)Glc
# Summary of the method: as §1
# [20] = biological target: Fuc(a1-2)[Gal(a1-3)]Gal(b1-3)GlcNAc
# Summary of the method: as §1
# [21] = biological target: Fuc(a1-2)[Gal(a1-3)]Gal(b1-3)GlcNAc(b1-2)Man(a1-3)[Fuc(a1-2)[Gal(a1-3)]Gal(b1-3)GlcNAc(b1-2)Man(a1-6)]Man(b1-4)GlcNAc(b1-4)GlcNAc
# Summary of the method: as §1
# [22] = biological target: Fuc(a1-2)[Gal(a1-3)]Gal(b1-3)GlcNAc(b1-2)Man(a1-3)[Fuc(a1-2)[Gal(a1-3)]Gal(b1-3)GlcNAc(b1-2)Man(a1-6)]Man(b1-4)GlcNAc(b1-4)[Fuc(a1-6)]GlcNAc
# Summary of the method: as §1
# [23] = biological target: Fuc(a1-2)[Gal(a1-3)]Gal(b1-3)GlcNAc(b1-3)GalNAc
# Summary of the method: as §1
# [24] = biological target: Fuc(a1-2)[Gal(a1-3)]Gal(b1-3)GlcNAc(b1-6)GalNAc
# Summary of the method: as §1
# [25] = biological target: Fuc(a1-2)[Gal(a1-3)]Gal(b1-4)Glc
# Summary of the method: as §1
# [26] = biological target: Fuc(a1-2)[Gal(a1-3)]Gal(b1-4)GlcNAc
# Summary of the method: as §1
# [27] = biological target: Fuc(a1-2)[Gal(a1-3)]Gal(b1-4)GlcNAc(b1-2)Man
# Summary of the method: as §1
# [28] = biological target: Fuc(a1-2)[Gal(a1-3)]Gal(b1-4)GlcNAc(b1-2)Man(a1-3)[Fuc(a1-2)[Gal(a1-3)]Gal(b1-4)GlcNAc(b1-2)Man(a1-6)]Man(b1-4)GlcNAc(b1-4)GlcNAc
# Summary of the method: as §1
# [29] = biological target: Fuc(a1-2)[Gal(a1-3)]Gal(b1-4)GlcNAc(b1-2)Man(a1-3)[Fuc(a1-2)[Gal(a1-3)]Gal(b1-4)GlcNAc(b1-2)Man(a1-6)]Man(b1-4)GlcNAc(b1-4)[Fuc(a1-6)]GlcNAc
# Summary of the method: as §1
# [30] = biological target: Fuc(a1-2)[Gal(a1-3)]Gal(b1-4)GlcNAc(b1-3)GalNAc
# Summary of the method: as §1
# [31] = biological target: Fuc(a1-2)[Gal(a1-3)]Gal(b1-4)GlcNAc(b1-3)[Fuc(a1-2)[Gal(a1-3)]Gal(b1-4)GlcNAc(b1-6)]GalNAc
# Summary of the method: as §1
# [32] = biological target: Fuc(a1-2)[Gal(a1-3)]Gal(b1-4)GlcNAc(b1-6)GalNAc
# Summary of the method: as §1
# [33] = biological target: Fuc(a1-2)[Gal(a1-3)]Gal(b1-4)[Fuc(a1-3)]Glc
# Summary of the method: as §1
# [34] = biological target: Fuc(a1-2)[Gal(a1-3)]Gal(b1-4)[Fuc(a1-3)]GlcNAc
# Summary of the method: as §1
# [35] = biological target: Fuc(a1-2)[Gal(a1-3)]Gal(b1-4)[Fuc(a1-3)]GlcNAc(b1-3)GalNAc
# Summary of the method: as §1
binder,measurement,setting,value
B1,glycan array binding signal (z-score),[1],0.701
same,glycan array binding signal (z-score),[2],-0.507
same,glycan array binding signal (z-score),[3],-0.579
same,glycan array binding signal (z-score),[4],-0.336
same,glycan array binding signal (z-score),[5],0.148
same,glycan array binding signal (z-score),[6],0.326
same,glycan array binding signal (z-score),[7],-0.222
same,glycan array binding signal (z-score),[8],1.06
same,glycan array binding signal (z-score),[9],0.886
same,glycan array binding signal (z-score),[10],0.719
same,glycan array binding signal (z-score),[11],-0.517
same,glycan array binding signal (z-score),[12],-0.049
same,glycan array binding signal (z-score),[13],-0.648
same,glycan array binding signal (z-score),[14],0.274
same,glycan array binding signal (z-score),[15],-0.49
same,glycan array binding signal (z-score),[16],0.538
same,glycan array binding signal (z-score),Fuc(a1-2)Gal6S(b1-4)Glc,-0.078
same,glycan array binding signal (z-score),[17],0.28
same,glycan array binding signal (z-score),Fuc(a1-2)[Gal(a1-3)]Gal,-0.571
same,glycan array binding signal (z-score),[18],-0.3
same,glycan array binding signal (z-score),[19],0.019
same,glycan array binding signal (z-score),[20],0.007
same,glycan array binding signal (z-score),[21],1.08
same,glycan array binding signal (z-score),[22],-0.408
same,glycan array binding signal (z-score),[23],-0.02
same,glycan array binding signal (z-score),[24],0.553
same,glycan array binding signal (z-score),[25],-0.317
same,glycan array binding signal (z-score),[26],-0.287
same,glycan array binding signal (z-score),[27],-0.333
same,glycan array binding signal (z-score),[28],0.26
same,glycan array binding signal (z-score),[29],-0.096
same,glycan array binding signal (z-score),[30],-0.704
same,glycan array binding signal (z-score),[31],-0.459
same,glycan array binding signal (z-score),[32],0.219
same,glycan array binding signal (z-score),[33],0.035
same,glycan array binding signal (z-score),[34],-0.229
same,glycan array binding signal (z-score),[35],-0.284
